PubChem BioAssay AID1240 (Sanford-Burnham Center for Chemical Genomics, 2008)
Hit rate of the full screen: of about 50,000 compounds, about 800 (1.6%) showed an effect of 50% or more. The list shows a part of the results.

Biological target: Bcl-2-like protein 10 (Homo sapiens) (UniProt Q9HD36)
Assay: TR3 peptide-Bcl-B binding displacers, biochemical primary FP assay, phenotype converters (AID 1240);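 note: 0% = Bcl-B with tracer peptide and DMSO and 100% = tracer peptide lacking Bcl-B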
Settings: GST-Bcl-B / FITC-TR3 peptide fluorescence polarization; stronger effect = higher value; compound at 3.75 mg/L

Chain of UniProt Q9HD36 (Q9HD36 whole entry, looked up): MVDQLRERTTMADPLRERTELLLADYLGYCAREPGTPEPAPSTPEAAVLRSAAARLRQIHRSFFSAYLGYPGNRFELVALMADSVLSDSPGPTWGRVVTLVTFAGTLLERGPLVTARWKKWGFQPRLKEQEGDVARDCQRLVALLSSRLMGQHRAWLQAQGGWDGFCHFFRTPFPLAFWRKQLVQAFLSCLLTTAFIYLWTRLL

SMILES | displacement [%]
O=C(Nc1nc2c(s1)C(=O)CCC2)c1ccccc1Cl | 10.3
Cc1ccc(/C=C2/SC(=S)N(CCC(=O)N3CCCCC3)C2=O)cc1 | 10
Cc1ccc(S(=O)(=O)Nc2cccc(Cl)c2)cc1[N+](=O)[O-] | 3
N#Cc1c(-c2ccc([N+](=O)[O-])cc2)c2c([nH]c1=S)CCCC2 | 3.8
Clc1ccccc1-n1ncnc1-c1ccc(Br)cc1 | -4.7
COc1cc(NC(=O)COc2cccc(C)c2C)c(OC)cc1Cl | -5
O=C(CSc1nc2ccccc2s1)NNC(=O)NC1CCCCC1 | -8.5
COc1ccc(C2CC(=O)C3=C(C2)Nc2ccccc2NC3c2ccccc2)cc1 (stereo unspecified) | 2.3
CCOC(=O)c1ccccc1NC(=O)C(CC)c1ccccc1 (stereo unspecified) | 19.2
CC(C)(C)c1ccc(/C=C/C(=O)Nc2ccc([N+](=O)[O-])cc2)cc1 | -0.8
COC(=O)c1ccccc1NC(=O)CN(c1ccc(C)cc1)S(C)(=O)=O | 3.5
CCN(CC)c1ccc(/C=C2\NC(=S)N(c3ccccc3)C2=O)cc1 | -61.8
O=C(Nc1nc(-c2ccc([N+](=O)[O-])cc2)cs1)C1CC1c1ccccc1 (stereo unspecified) | -0.8
C=CCc1cccc2cc(C(=O)Nc3ccc(C)c(C)c3)c(=O)oc12 | 7.3
O=C(c1cccnc1)N1CCN(S(=O)(=O)c2ccc(Cl)cc2)CC1 | -0.2
CCOc1cc(C(=S)N2CCOCC2)ccc1O | 14.5

SMILES | displacement [%]
CC(C)CN1C(=O)/C(=C/c2ccc(Cl)cc2Cl)SC1=S | 11.7
CCOc1cccc(-c2nnc(N)s2)c1 | 2.4
NC1=NC(c2ccccc2)n2c(nc3ccccc32)N1 (stereo unspecified) | 8.7
CC(C)(C)CC(C)(C)NC(=O)CSc1nnc(N)s1 | 0.6
Nc1nonc1OCCN1CCN(c2ccc([N+](=O)[O-])c3cccnc23)CC1 | 7.2
CCOC(=O)c1ccc(NC(=O)COc2ccccc2C)cc1 | -9.4
COc1ccc(OC)c(NC(=O)c2ccc(CN3CCc4ccccc4C3)cc2)c1 | -2
COc1ccc(NC(=O)c2ccc(F)cc2)cc1Cl | -14.3
CCCCOC(=O)Nc1nnc(COc2ccccc2)s1 | 7.2
CCOC(=O)C1=C(O)/C(=C\c2ccc(OC)cc2)SC1=Nc1cccc(Cl)c1 | -39
Cc1cc2nc3s/c(=C/c4ccc(-c5cc([N+](=O)[O-])ccc5Cl)o4)c(=O)n3c2cc1C | 1
CCOc1ccc(C(=O)Nc2ccc3oc(-c4ccncc4)nc3c2)cc1Cl | -9.5
COc1ccc(OC)c(/C=C2/SC(=S)N(CNc3cccc(Cl)c3)C2=O)c1 | 57
COCCOC(=O)c1ccc(NC(=O)COc2ccc3c(C)cc(=O)oc3c2)cc1 | 90.3
Cc1c(C)c2ccc(OCC(=O)c3ccccc3)c(C)c2oc1=O | 16.4
